Measurements reported in article PMC4336329 (PLoS ONE, 2015).
In all, about 310,000 compounds went through this assay and about 2,200 (0.71%) showed an effect of 50% or more. Effects have a minus sign here. Some of the results follow.

The molecules below were run against human ether-à-go-go-related gene (hERG) potassium channel (human, UniProt Q12809) (assay: primary screen, population patch clamp on CHO cells stably expressing hERG).
Sequence of human ether-à-go-go-related gene (hERG) potassium channel (Q12809 whole entry, looked up): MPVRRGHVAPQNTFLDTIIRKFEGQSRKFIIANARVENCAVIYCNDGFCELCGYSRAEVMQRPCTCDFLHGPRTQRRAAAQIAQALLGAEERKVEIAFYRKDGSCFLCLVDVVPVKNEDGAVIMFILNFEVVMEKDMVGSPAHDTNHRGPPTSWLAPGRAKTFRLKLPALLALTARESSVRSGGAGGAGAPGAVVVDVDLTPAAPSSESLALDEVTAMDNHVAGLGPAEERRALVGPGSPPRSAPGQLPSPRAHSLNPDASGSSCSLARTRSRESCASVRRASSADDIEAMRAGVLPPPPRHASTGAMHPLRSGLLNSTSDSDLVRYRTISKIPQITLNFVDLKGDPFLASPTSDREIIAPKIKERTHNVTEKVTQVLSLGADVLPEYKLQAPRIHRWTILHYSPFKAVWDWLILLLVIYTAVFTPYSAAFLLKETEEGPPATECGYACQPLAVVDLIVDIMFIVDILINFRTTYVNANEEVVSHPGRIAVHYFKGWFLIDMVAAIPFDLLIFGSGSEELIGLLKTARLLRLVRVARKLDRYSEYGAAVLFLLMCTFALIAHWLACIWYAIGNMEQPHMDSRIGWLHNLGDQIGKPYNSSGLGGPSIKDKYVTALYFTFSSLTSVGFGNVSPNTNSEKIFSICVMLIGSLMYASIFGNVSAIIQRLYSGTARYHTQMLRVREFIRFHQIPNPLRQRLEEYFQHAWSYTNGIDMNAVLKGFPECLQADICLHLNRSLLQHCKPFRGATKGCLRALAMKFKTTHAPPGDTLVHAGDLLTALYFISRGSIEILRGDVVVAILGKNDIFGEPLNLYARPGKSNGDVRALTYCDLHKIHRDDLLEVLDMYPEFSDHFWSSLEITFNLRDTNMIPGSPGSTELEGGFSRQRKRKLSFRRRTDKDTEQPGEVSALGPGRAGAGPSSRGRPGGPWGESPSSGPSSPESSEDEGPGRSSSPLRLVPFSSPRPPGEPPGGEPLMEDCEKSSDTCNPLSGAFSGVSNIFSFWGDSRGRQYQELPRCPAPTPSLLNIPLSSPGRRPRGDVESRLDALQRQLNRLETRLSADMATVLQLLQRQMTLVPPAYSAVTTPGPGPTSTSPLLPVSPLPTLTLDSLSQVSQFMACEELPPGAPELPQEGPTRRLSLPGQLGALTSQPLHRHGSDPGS
`COc1cccc(-c2nnc(NC(=O)C3CCCCC3)o2)c1` was tested, and the “hERG current change (%, negative = inhibition) at 1uM” value was 12.8%.
In the case of `c1cnc2ccc(C(c3nnnn3C3CCCCC3)N3CCCCC3)cc2c1` (centres unmarked), the “hERG current change (%, negative = inhibition) at 1uM” value is reported as 1.89%.
`CC(C)N(C)CCOC(=O)c1ccccc1Cl.Cl` was tested, and the “hERG current change (%, negative = inhibition) at 1uM” value was 1.85%.
With `COC(=O)c1cc(N=Cc2c(O)c3ccccc3oc2=O)cc(C(=O)OC)c1` the “hERG current change (%, negative = inhibition) at 1uM” value was 19.8%.
In the case of `C=CCN(CC=C)C(=O)CN1C(=O)NC(C)(c2ccc3cc(OC)ccc3c2)C1=O` (centres unmarked), the “hERG current change (%, negative = inhibition) at 1uM” value is reported as 11.5%.
In the case of `O=C(NCCc1cn2ccccc2n1)c1ccccc1F`, the “hERG current change (%, negative = inhibition) at 1uM” value is reported as 2.41%.
In the case of `CCCC(=O)N1CCN(c2nc3ccc(CC)cc3s2)CC1`, the “hERG current change (%, negative = inhibition) at 1uM” value is reported as 4.32%.
With `Cc1nnc(NC(=O)C2CCN(S(=O)(=O)c3cc([N+](=O)[O-])ccc3Cl)CC2)o1` the “hERG current change (%, negative = inhibition) at 1uM” value was -2.02%.
In the case of `COCCCC1CCN(C(=O)C2CCC(=O)N(CC3CCCCC3)C2)CC1` (centres unmarked), the “hERG current change (%, negative = inhibition) at 1uM” value is reported as 2.85%.
In the case of `CC1CCN(c2c(NCc3ccc(C(=O)NCc4cccnc4)cc3)c(=O)c2=O)CC1`, the “hERG current change (%, negative = inhibition) at 1uM” value is reported as 13.4%.
In the case of `COc1ccc(C2Nc3ccc4ccccc4c3-c3c2c(=O)oc2ccccc32)cc1` (centres unmarked), the “hERG current change (%, negative = inhibition) at 1uM” value is reported as 7.65%.
`COc1ccc(C(=O)NC(=S)Nc2cccc3ncccc23)cc1[N+](=O)[O-]` was tested, and the “hERG current change (%, negative = inhibition) at 1uM” value was 11%.
`N#C/C(=C\c1ccc(F)c(Br)c1)C(=O)NC1CC1` was tested, and the “hERG current change (%, negative = inhibition) at 1uM” value was -6.48%.
In the case of `CCCc1nnc(SCC(=O)N2CCOCC2)n1Cc1ccco1`, the “hERG current change (%, negative = inhibition) at 1uM” value is reported as 13.2%.
For `CC1(C)CC(NC(=O)c2cc(S(=O)(=O)N3CCOCC3)c(Cl)cc2Cl)CC(C)(C)N1`, the “hERG current change (%, negative = inhibition) at 1uM” value was 10%.
With `Cc1ccc(CCNC(=O)c2coc3nc4ccccc4nc23)cc1` the “hERG current change (%, negative = inhibition) at 1uM” value was 4.28%.
In the case of `CC(NC(=O)CCC1COc2ccccc2O1)c1ccccc1` (centres unmarked), the “hERG current change (%, negative = inhibition) at 1uM” value is reported as 8.36%.
`N#Cc1ccc(Cn2c(=O)oc3ccccc32)cc1` was tested, and the “hERG current change (%, negative = inhibition) at 1uM” value was -1.74%.
`CC1C/C(=N/N2C(=O)CSC2=S)CC(C)(C)C1` (centres unmarked) was tested, and the “hERG current change (%, negative = inhibition) at 1uM” value was 11.1%.
For `NC(=O)c1cc(S(=O)(=O)N2CCc3ccccc3C2)cs1`, the “hERG current change (%, negative = inhibition) at 1uM” value was 14.5%.
For `CCOCCCn1c(SCC(=O)Nc2ccccc2)nc2ccccc2c1=O`, the “hERG current change (%, negative = inhibition) at 1uM” value was -1.48%.
For `CCCC(CCC)=NNc1ccc(S(=O)(=O)Nc2ccccc2OC)cc1[N+](=O)[O-]`, the “hERG current change (%, negative = inhibition) at 1uM” value was 9.54%.
With `Cc1cc(=O)oc2cc(OCC(=O)N/N=C/c3cc([N+](=O)[O-])ccc3O)ccc12` the “hERG current change (%, negative = inhibition) at 1uM” value was 10.5%.
For `COc1ccc(C(=O)N2CCC3(CC2)NCCc2[nH]cnc23)cc1OC`, the “hERG current change (%, negative = inhibition) at 1uM” value was 18.1%.
`CCCCOc1ccc(C(=O)OC(C)CN(C)C)cc1.Cl` (centres unmarked) was tested, and the “hERG current change (%, negative = inhibition) at 1uM” value was 3.71%.
In the case of `CCOC(=O)C(CC)/C(C)=N\NC(=O)c1ccccc1O` (centres unmarked), the “hERG current change (%, negative = inhibition) at 1uM” value is reported as 8.39%.
With `Cc1cc(OCCn2cnc3ccccc3c2=O)ccc1[N+](=O)[O-]` the “hERG current change (%, negative = inhibition) at 1uM” value was 0.46%.
`O=C(NCc1cccnc1)C(=O)NCC(c1ccco1)N1CCN(c2ccccc2)CC1` (centres unmarked) was tested, and the “hERG current change (%, negative = inhibition) at 1uM” value was -6.85%.
In the case of `O=C(Nc1ccccc1)[C@@H]1[C@@H]2C(=O)N(c3ccc(F)cc3)C(=O)[C@@H]2[C@H]2C=CC=NN21`, the “hERG current change (%, negative = inhibition) at 1uM” value is reported as 16.4%.
`CSc1nncn1/N=C/c1ccc2c(c1)OCO2` was tested, and the “hERG current change (%, negative = inhibition) at 1uM” value was 17.1%.
With `COc1ccc(N2C(=O)CSC23CCCCC3)cc1` the “hERG current change (%, negative = inhibition) at 1uM” value was 14.4%.
With `Cc1ccc(/C=N/NC(=O)c2ccccc2OCc2ccc(F)cc2)o1` the “hERG current change (%, negative = inhibition) at 1uM” value was -2.78%.
For `C=CCn1c(-c2cc(-c3ccc(C)cc3)nc3ccccc23)n[nH]c1=S`, the “hERG current change (%, negative = inhibition) at 1uM” value was 13.1%.
With `Cc1nc2ccc(Br)cc2c(=O)n1-c1ccc([N+](=O)[O-])c(C(F)(F)F)c1` the “hERG current change (%, negative = inhibition) at 1uM” value was 8.09%.
With `O=C(NC1CCCCC1)C1CC(O)CN1C(=O)OCc1ccccc1` (centres unmarked) the “hERG current change (%, negative = inhibition) at 1uM” value was 1.04%.
In the case of `O=C(CN(Cc1ccccc1)C(=O)CCC(=O)Nc1ccccn1)NCc1ccco1`, the “hERG current change (%, negative = inhibition) at 1uM” value is reported as 3.01%.
In the case of `COc1ccc(C2/C=C\CN(S(=O)(=O)c3ccc(C)cc3)CC(=O)N2Cc2ccc(F)cc2)cc1` (centres unmarked), the “hERG current change (%, negative = inhibition) at 1uM” value is reported as 7.16%.
In the case of `Cc1ccc(C)c(S(=O)(=O)N2CCCC2CNC(=O)C(=O)NC2CCCCCC2)c1` (centres unmarked), the “hERG current change (%, negative = inhibition) at 1uM” value is reported as 8.42%.
With `Cc1ccc(-c2noc(CSc3nc(N)cc(N)n3)n2)cc1` the “hERG current change (%, negative = inhibition) at 1uM” value was -3.51%.
With `CCCCOC(=O)n1c(SCC(=O)N(CC)CC)nc2ccccc21` the “hERG current change (%, negative = inhibition) at 1uM” value was -4.13%.
For `Cc1oc(-c2ccc(Cl)cc2)nc1CS(=O)CC(=O)NCCCN1CCN(Cc2ccccc2)CC1` (centres unmarked), the “hERG current change (%, negative = inhibition) at 1uM” value was -12.8%.
For `Cc1nc(C)n(C(=O)N(c2ccccc2)c2ccccc2)n1`, the “hERG current change (%, negative = inhibition) at 1uM” value was 4.25%.
`CC(=O)C(Sc1ncnc2sc3c(c12)CCCC3)C(C)=O` was tested, and the “hERG current change (%, negative = inhibition) at 1uM” value was 24%.
For `CSc1ccc(/C=N/NC(=O)C[n+]2ccccc2)cc1.[Cl-]`, the “hERG current change (%, negative = inhibition) at 1uM” value was 8.52%.
With `CC1CC(C)CN(CC(=O)N2c3ccccc3CCc3ccccc32)C1.O=C(O)C(=O)O` (centres unmarked) the “hERG current change (%, negative = inhibition) at 1uM” value was 11.6%.
For `CC(=O)Nc1ccc(NC(=O)C(C)OC(=O)CCc2c[nH]c3ccccc23)cc1` (centres unmarked), the “hERG current change (%, negative = inhibition) at 1uM” value was 5.26%.
With `Cc1ccc(C(=O)COC(=O)COc2ccc(C)c(C)c2)cc1` the “hERG current change (%, negative = inhibition) at 1uM” value was 8.02%.
In the case of `COc1ccc(-c2onc(C)c2-c2ccc(C(=O)OC(C)C)o2)c(O)c1`, the “hERG current change (%, negative = inhibition) at 1uM” value is reported as 1.81%.
`CC1CCN(CC(=O)NCCc2ccc(F)cc2)CC1.O=C(O)C(=O)O` was tested, and the “hERG current change (%, negative = inhibition) at 1uM” value was 10.2%.
`CC(C)c1ccc(N(C(=O)c2snc(C(N)=O)c2N)C(C(=O)NC2CCCC2)c2ccncc2)cc1` (centres unmarked) was tested, and the “hERG current change (%, negative = inhibition) at 1uM” value was 12.5%.
`CC(C)Oc1nnnn1-c1ccccc1` was tested, and the “hERG current change (%, negative = inhibition) at 1uM” value was 6.64%.
In the case of `NC(=O)c1nn(-c2ccccc2)c(=O)cc1O`, the “hERG current change (%, negative = inhibition) at 1uM” value is reported as -5.52%.
`Cc1ccc(-c2nn(-c3ccccn3)c(=O)c3ccccc23)cc1` was tested, and the “hERG current change (%, negative = inhibition) at 1uM” value was 6.16%.
For `COc1cc(/C=N/n2cnnc2)ccc1OCc1ccccc1`, the “hERG current change (%, negative = inhibition) at 1uM” value was 18.4%.
With `COC(=O)CCC(=O)N1CCCC(C(=O)c2ccc(Cl)cc2C)C1` (centres unmarked) the “hERG current change (%, negative = inhibition) at 1uM” value was 1%.
`CC(=O)Nc1ccc(C(=O)N2CCCc3ccccc32)cc1` was tested, and the “hERG current change (%, negative = inhibition) at 1uM” value was 4.52%.
